In the RNAGym collection of RNA variant scans (doi:10.1093/nar/gkz1192):
Read counts are not given, so values of variants with three or more changes are uncertain.

B1: CPEB3 Ribozyme (parent)
chain: UAACAGGGGGCCACAGCAGAAGCGUUCACGUCGCAGCCCCUGUCAGAUUCUGGUGAAUCUGCGAAUUCUGCUGUAUAUCUC

Variants of: B1
Assay: self-cleavage, relative activity (ratio to wild type); higher = more cleavage; in vitro, sequencing
Summary of the method: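 Barcoded CPEB3 ribozyme mutants, produced by rounds of error-prone PCR, self-cleaved while being transcribed with T7 RNA polymerase for 5 hours at 37°C and during a subsequent 15 min DNase I step before EDTA was added. Sequencing of template-switched cDNA on Illumina gave cleaved and total reads, and DNA sequencing assigned barcodes to variants. Each variant's relative activity is its cleaved/total read fraction divided by the unmutated ribozyme's fraction, averaged across three batches. A variant needed a minimum of 5 reads.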

Variant | self-cleavage
UGACAGGGGGCCACAACAGUAGCGUUCACGUCGCAGCCCGUGUCAGAUUCUGGUGAAUCUGCGAAUUCAGCUGUAUAUCUC [A2G G16A A20U C40G U69A] | 0.21
UGACAGGGGGCCACAACAGAAGCGUUCGCGUCGCAGCCCGUGUCAGAUUCUGGUGAAUCUGCGAAAUCAGCUGUAUAUCUC [A2G G16A A28G C40G U66A U69A] | 0.12
UGACAGGGGGCCACAGCAAAAGCGUUCACGUCGCAGCCCCUAUCAGAUUCUGGUGAAUCUGCGAAUUCUGCUGUAUAUCUC [A2G G19A G42A] | 0.05
UGACAGGGGGCCACAGCAUAAGCGUUCACGUCGCAGCCCCUGUCGGAUUCUGGUGAAUCUGCGGAUUCUGCUGUAUAUCUC [A2G G19U A45G A64G] | 0.13
UGACAGGGGGCCACAGCAUAAGCGUUCACGUCGCAGCCCCUGUCAGAUCCUGGUGAAUCUGCGAAUUCUGCUGUAUACCUC [A2G G19U U49C U78C] | 0.14
UGACAGGGGGCCACAGCAGAAGCAUUCACGUCGCAGCCCCUGUCCGAUUCUGGUGUAUCUGCGAAUUCUGCUGUAUAUCUC [A2G G24A A45C A56U] | 0.53
UGACAGGGGGCCACAGCAGAAGCGUUCACAUCGCAGCCCCUGUCAGAGUCUGGUGAAUCUGCGAAUUCUGCUGUAUACCUC [A2G G30A U48G U78C] | 0.31
UGACAGGGGGCCACAGCAGAAGCGUUCACUUCGCAGCCCCUGUCAGAUUCUGGUGAAUCUGCGAAUACUGCUGUAUACCUC [A2G G30U U67A U78C] | 0.07
UGACAGGGGGCCACAGCAGAAGCGUUCACGUCGCAACCCCAGUCAGAUUCUGGUGAAUCUCCGAGUUCUGCCGUAUAUCUC [A2G G36A U41A G61C A65G U72C] | 0.17
UGACAGGGGGCCACAGCAGAAGCGUUCACGUCGCAGCCCCUUUCAGAUUCUGGUGAAUCUGUGAAUUCUGCCGUAUAUCUC [A2G G42U C62U U72C] | 0.15
UGACAGGGGGCCACAGCAGAAGCGUUCACGUCGCAGCCCCUGUCAUAUUCUGGUGAAUCUGCGAACUCUGCUGUAUAUCUC [A2G G46U U66C] | 0.21
UGACAGGGGGCCACAGCAGAAGCGUUCACGUCGCAGCCCCUGUCAGAUUCUGGUGAAUCUGCUAACUCUGCUGUAUAUCUC [A2G G63U U66C] | 0.36
UGACAGGGGGCCACAGCAGAAGCGUUCACGUCGCAGCCCCUGUCAGAUUCUGGUGAAUCUGCUAACUCUGCUGUAUACCUC [A2G G63U U66C U78C] | 0.16
UGACAGGGGGCCACAGCAGAAGCGAUCACGUCGCGGCCCCUGUCAGAUUCUGGUGAAUCUGCGAAUUCUGCAGUAUAUCUC [A2G U25A A35G U72A] | 0.12
UGACAGGGGGCCACAGCAGAAGCGAUCACGUCGCAGCCCCUGUCAGUUACUGGUGAAUCUGCGAUUACUGCAGUAUAUCUC [A2G U25A A47U U49A A65U U67A U72A] | 0.06
UGACAGGGGGCCACAGCAGAAGCGAUCACGUCGCAGCCCCUGUCAGAUUCUGGUGAGUCUGCGAAUUCUGCUGUAUAUCUC [A2G U25A A57G] | 0.15
UGACAGGGGGCCACAGCAGAAGCGCUCGCGUCGCAGCCCCAGUCAGAUUCUGUUGAAUCUGCGAAUUCUGCUGUAUAUCUC [A2G U25C A28G U41A G53U] | 0.33

Variant | self-cleavage
UGACAGGGGGCCACAGCAGAAGCGCUCACGUCGCUGCACCUGUCAGAUUCUGGUGAGUCUGCGUAUUCUGCUGUAUAGCUC [A2G U25C A35U C38A A57G A64U U78G] | 0
UGACAGGGGGCCACAGCAGAAGCGCUCACGUCGCUGCCCCCGUCGGAUUCUGGUGAAUCUGCGAAUUCUGCUGUAUAUCUC [A2G U25C A35U U41C A45G] | 0.12
UGACAGGGGGCCACAGCAGAAGCGCUCACGUCGCAGCCCCUGUCAGAUUCUGGUGGGUCUGCGAAUUCUGCUGUAUAUCCC [A2G U25C A56G A57G U80C] | 0.29
UGACAGGGGGCCACAGCAGAAGCGCUCACGUCGCAGCCCCUGUCAGAUUCUGGUGUAUCUGCGGAUUCUGCUGUGUAUCUC [A2G U25C A56U A64G A75G] | 0.06
UGACAGGGGGCCACAGCAGAAGCGCUCACGUCGCAGCCCCUGUCAGAUUCUGGUGAGUCUGCGAAUUCUGCUGUAUAUCUC [A2G U25C A57G] | 0.07
UGACAGGGGGCCACAGCAGAAGCGCUCACGUAGCACCCCCUGUCAGAUUCUGGUGAACCUGCGAAUUCUGCUGUAUAUCGC [A2G U25C C32A G36C U58C U80G] | 0.08
UGACAGGGGGCCACAGCAGAAGCGCUCACGCCGCAGCCCCUGUCUGAUACUGGUGAAUCUGCGAAUUCGGCUGUAUAUCUC [A2G U25C U31C A45U U49A U69G] | 0.06
UGACAGGGGGCCACAGCAGAAGCGCUCACGUCGCAGCCCCAGUCAGAUUCAGGUGAAUCUGCGAAUUCUGCUGUAUAUCUC [A2G U25C U41A U51A] | 0.34
UGACAGGGGGCCACAGCAGAAGCGCUCACGUCGCAGCCCCCGUCAGAUUCUGGUGAAUCUGCGAAUUCUGCUGUAUAUCUC [A2G U25C U41C] | 0.46
UGACAGGGGGCCACAGCAGAAGCGCUCACGUCGCAGCCCCUGACAGUUUCUGGUGGAUCUGCGAAUUCUGCUGUAUAACUC [A2G U25C U43A A47U A56G U78A] | 0.17
UGACAGGGGGCCACAGCAGAAGCGCUCACGUCGCAGCCCCUGUCAGAUCCUGGCGAAUCUGCGAAUUCUGCUGUAUGUCUC [A2G U25C U49C U54C A77G] | 0.12
UGACAGGGGGCCACAGCAGAAGCGGUCACGUCGCAGCCCCUGUCAGAUUCUGGUGAGUCUGCGAAUUCUGCUGUAUAUCCC [A2G U25G A57G U80C] | 0.56
UGACAGGGGGCCACAGCAGAAGCGGUCACGUCGGAGCCCCUGUUAGAUUCUGGUGAAUCAGCGGAUUCUGCUGUAUAUCUC [A2G U25G C34G C44U U60A A64G] | 0.21
UGACAGGGGGCCACAGCAGAAGCGGUCACGUCGCAGCCCCUGACAGAUUCUAGUGAAUCUGCGAAUUCUGUUGUGUAUCUC [A2G U25G U43A G52A C71U A75G] | 0.02
UGACAGGGGGCCACAGCAGAAGCGUACGCGUCGCAGCCCCUGUCAGAUUCUGGUGAAUCUGCGAAUUCUGCUGUAUAUCUC [A2G U26A A28G] | 0.23
UGACAGGGGGCCACAGCAGAAGCGUACACGUCGCUGCCCCUGUCAGAUUCUGGUGAAUCUGCGAAUUCUGCUGUAUAUCUC [A2G U26A A35U] | 0.28
UGACAGGGGGCCACAGCAGAAGCGUACACGUCGCAGCCCCUGUCAGAUUCUGGUGAAUCUGCGGAUUCUGCUGUAUAUCAC [A2G U26A A64G U80A] | 0.55
